Measurements taken from the supplement of paper PMC7826260.
The other results are listed elsewhere or left out. Cleavage of a single-stranded DNA pool by Rep nickase domains was read by sequencing at 3 µM enzyme and 37 °C for 1 h; the strands have 90 letters, of which the middle is given. The score is log2 (uncut reads / reads without enzyme); strong cutting gives strongly negative numbers. There is no active / inactive call. Because reads are shares of a total, they shift together, so uncut sequences can rise above 0 when many others are cut.

Columns and labels:
Assay in all cases: uncleaved DNA left, log2 of reads against the no-enzyme library (log2 ratio); higher = less cleavage (more negative = more Rep cleavage of the k-mer); sequences stand for … in CTCGTCCG…ACCGGAGA
[1] = tested on: T1, Rep nickase domain of Muscovy duck circovirus
T1 sequence (residues 1-111 of Rep, tag left off): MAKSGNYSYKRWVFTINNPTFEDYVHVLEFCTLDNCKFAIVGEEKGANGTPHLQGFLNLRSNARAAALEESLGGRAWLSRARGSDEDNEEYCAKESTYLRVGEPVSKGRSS
Method: (§1)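 A pool of 90-nt single-stranded DNAs with seven random bases just before the constant AC of the nick site (name = the seven bases) was cut by 3 µM recombinant His6-SUMO-tagged Rep nickase domain (300 nM DNA, 50 mM HEPES pH 8.0, 50 mM NaCl, 1 mM MnCl2, 1 h, 37 °C, three replicates). Uncut DNA was amplified and sequenced.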

[2] = tested on: T2, Rep nickase domain of banana bunchy top virus
T2 sequence (residues 1-94 of Rep, tag left off): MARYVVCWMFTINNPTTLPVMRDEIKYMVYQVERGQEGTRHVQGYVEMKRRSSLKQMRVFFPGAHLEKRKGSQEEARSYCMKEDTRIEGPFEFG
Method: as §1

[3] = tested on: T3, Rep nickase domain of cabbage leaf curl virus
T3 sequence (residues 1-116 of Rep, tag left off): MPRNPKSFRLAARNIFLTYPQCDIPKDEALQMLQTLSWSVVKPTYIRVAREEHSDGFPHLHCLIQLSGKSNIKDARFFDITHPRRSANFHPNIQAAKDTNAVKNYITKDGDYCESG
Method: as §1

[4] = tested on: T4, Rep nickase domain of chickpea chlorotic dwarf virus
T4 sequence (residues 1-124 of Rep, tag left off): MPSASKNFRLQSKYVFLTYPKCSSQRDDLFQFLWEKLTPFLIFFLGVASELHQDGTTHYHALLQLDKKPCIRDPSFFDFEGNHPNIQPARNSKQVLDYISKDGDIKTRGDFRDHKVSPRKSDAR
Method: as §1

[5] = tested on: T5, Rep nickase domain of faba bean necrotic yellows virus
T5 sequence (residues 1-98 of Rep, tag left off): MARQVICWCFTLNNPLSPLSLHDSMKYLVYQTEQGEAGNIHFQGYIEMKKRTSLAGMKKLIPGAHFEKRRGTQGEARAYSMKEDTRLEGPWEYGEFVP
Method: as §1

[6] = tested on: T6, Rep nickase domain of maize striate mosaic virus
T6 sequence (residues 1-117 of Rep, tag left off): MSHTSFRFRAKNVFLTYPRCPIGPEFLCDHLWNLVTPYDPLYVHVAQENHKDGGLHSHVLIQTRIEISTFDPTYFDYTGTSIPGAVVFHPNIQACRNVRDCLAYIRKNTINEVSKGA
Method: as §1

[7] = tested on: T7, Rep nickase domain of porcine circovirus 2
T7 sequence (residues 2-116 of Rep, tag left off): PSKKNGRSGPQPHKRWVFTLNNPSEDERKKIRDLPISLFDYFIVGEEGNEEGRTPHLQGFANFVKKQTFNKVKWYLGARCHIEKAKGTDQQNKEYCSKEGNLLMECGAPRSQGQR
Method: as §1

[8] = tested on: T8, Rep nickase domain of tomato yellow leaf curl virus
T8 sequence (residues 1-136 of Rep, tag left off): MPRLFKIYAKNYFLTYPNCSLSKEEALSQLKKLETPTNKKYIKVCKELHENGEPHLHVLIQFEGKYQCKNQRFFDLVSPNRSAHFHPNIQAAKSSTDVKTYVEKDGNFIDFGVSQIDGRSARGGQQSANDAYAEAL
Method: as §1

[9] = tested on: T9, Rep nickase domain of wheat dwarf virus
T9 sequence (residues 1-137 of Rep, tag left off): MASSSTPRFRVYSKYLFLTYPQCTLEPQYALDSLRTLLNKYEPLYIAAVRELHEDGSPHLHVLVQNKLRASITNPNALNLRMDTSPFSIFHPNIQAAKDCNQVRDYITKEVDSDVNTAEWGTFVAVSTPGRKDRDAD
Method: as §1

| Sequence | uncleaved DNA left (log2) [1] | uncleaved DNA left (log2) [2] | uncleaved DNA left (log2) [3] | uncleaved DNA left (log2) [4] | uncleaved DNA left (log2) [5] | uncleaved DNA left (log2) [6] | uncleaved DNA left (log2) [7] | uncleaved DNA left (log2) [8] | uncleaved DNA left (log2) [9] |
| --- | --- | --- | --- | --- | --- | --- | --- | --- | --- |
| CAAATAC | 0.0246 | -0.123 | -0.206 | -1.07 | -0.0125 | -0.952 | 0.101 | -0.0367 | -0.0424 |
| TGCAATT | -2.4e-05 | 0.0815 | -0.00606 | -1.69 | 0.129 | -0.417 | -0.476 | 0.0706 | -0.0342 |
| TAAATAC | 0.00226 | -0.035 | -1.02 | -2.65 | -0.0467 | -0.793 | -0.0391 | 0.00178 | -0.479 |
| CAATGGC | 0.071 | -0.0344 | -0.625 | -0.671 | 0.0625 | -1.22 | 0.0399 | 0.0455 | -0.0853 |
| AGTTAGA | 0.0323 | -0.0407 | -0.0702 | -0.0503 | -0.0596 | -0.777 | -0.159 | 0.0337 | -0.0218 |
| AAATCGA | 0.0201 | 0.048 | -0.643 | -0.976 | 0.0341 | -1.36 | 0.0498 | -0.0674 | -0.0807 |
| TCCGGTT | 0.0326 | -0.143 | 0.358 | 0.117 | -0.0617 | 1.07 | 0.0498 | -0.00677 | -0.0216 |
| CGGAAGG | 0.012 | -0.0533 | 0.104 | 0.65 | -0.00427 | 0.135 | 0.0517 | -0.0717 | 0.186 |
| ATACTAA | 0.101 | 0.0309 | -0.00547 | -0.706 | 0.0919 | -0.612 | 0.0742 | -0.113 | 0.123 |
| CTTACAT | 0.0406 | 0.0742 | 0.13 | -1.65 | -0.0905 | 0.076 | -0.0668 | 0.0759 | 0.0979 |
| TCGCCAT | 0.129 | 0.131 | 0.104 | -0.0747 | -0.0441 | -0.116 | -0.0866 | -0.0199 | 0.129 |
| ACTCGCT | 0.172 | 0.0779 | -0.469 | -1.18 | 0.157 | -1.01 | -0.362 | 0.182 | 0.0425 |
| GCCGTGC | 0.101 | -0.018 | -0.261 | -0.11 | 0.0684 | -0.615 | 0.109 | 0.076 | -0.026 |
| GAACTTC | -0.0864 | -0.00527 | 0.173 | 0.237 | 0.0126 | 1.08 | -0.145 | -0.0544 | 0.106 |
| TATTGGG | -0.0858 | -0.196 | -0.647 | -0.544 | -0.145 | -1.11 | 0.0975 | -0.0871 | -0.0876 |
| GCCTTAA | 0.0719 | -0.0462 | 0.0725 | 0.333 | -0.0471 | 0.442 | -0.0503 | -0.13 | -0.0693 |

| Sequence | uncleaved DNA left (log2) [1] | uncleaved DNA left (log2) [2] | uncleaved DNA left (log2) [3] | uncleaved DNA left (log2) [4] | uncleaved DNA left (log2) [5] | uncleaved DNA left (log2) [6] | uncleaved DNA left (log2) [7] | uncleaved DNA left (log2) [8] | uncleaved DNA left (log2) [9] |
| --- | --- | --- | --- | --- | --- | --- | --- | --- | --- |
| CATCCTC | 0.0423 | -0.0406 | 0.0305 | -0.202 | 0.0173 | -0.437 | 0.0677 | -0.0728 | 0.0429 |
| TGTGCAG | -0.132 | -0.157 | -0.725 | -0.516 | -0.15 | -1 | -0.0211 | -0.0232 | -0.286 |
| CTGAGTG | -0.0469 | -0.00279 | -0.342 | -0.254 | -0.00683 | -0.791 | -0.0476 | -0.0288 | -0.187 |
| CTGTTAT | -0.149 | -0.179 | -0.0709 | -0.805 | -0.00271 | -0.358 | -2.33 | -0.0628 | -0.176 |
| GAGGTCA | 0.00568 | 0.154 | 0.764 | 1.85 | 0.059 | 1.98 | 0.0404 | 0.0632 | 0.151 |
| CCCTGCA | -0.0162 | 0.0174 | -0.58 | -0.835 | -0.0695 | -0.954 | -0.213 | 0.12 | -0.114 |
| ATGTATT | -3.74 | -3.27 | -0.596 | -2.86 | -3.34 | -0.352 | -3.34 | 0.174 | -0.469 |
| GCTAGAG | 0.166 | 0.116 | -0.293 | -0.222 | 0.0434 | -0.762 | 0.235 | 0.22 | -0.0525 |
| GCGTCGG | 0.177 | 0.106 | 0.122 | 0.813 | 0.0637 | 1.49 | 0.221 | 0.0126 | 0.093 |
| AGATAAG | 0.0464 | 0.152 | -0.778 | -0.032 | 0.131 | -1 | 0.181 | 0.0441 | 0.00265 |
| CACTGTG | 0.0409 | -0.0709 | -0.777 | -0.0197 | 0.11 | -0.875 | 0.12 | 0.12 | -0.157 |
| TAATTAC | 0.038 | 0.0922 | -3.58 | -3.47 | 0.11 | -2.15 | -0.196 | -0.00842 | -3.09 |
| TGCGCTT | 0.065 | 0.101 | -0.042 | -0.384 | 0.177 | -0.000949 | 0.038 | -0.0248 | 0.0284 |
| TTAAAGC | 0.0211 | -0.0964 | -0.199 | -0.473 | -0.0297 | -1.06 | 0.155 | -0.00641 | -0.133 |
| ACTACCT | -0.0348 | -0.0494 | -0.261 | -0.742 | -0.0299 | 0.0128 | -0.677 | -0.0598 | -0.0369 |
| GGTAAGT | 0.0318 | 0.16 | 0.708 | 1.55 | 0.126 | 1.95 | 0.229 | 0.181 | 0.161 |
